Measurements published in PubChem BioAssay AID886 (National Center for Advancing Translational Sciences (NCATS), 2007).
Among all 73,000 compounds or so, about 2,500 (3.4%) were called active. Inconclusive results, whose numbers are uncertain, are shown with a selection of clear calls. Calls come from the whole dose curve; as a rule, active = well fitted inhibition curve with a large enough effect; inconclusive = small, poorly fitted or top-dose-only effect; inactive = no such curve, though single readings can be large or run the other way. Where the call is inconclusive, the potency comes from a doubtful curve fit. A structure can be active in one record and inactive in another.
% is set by controls: 0 for no effect and ±100 for the full control effect; potency is the fitted concentration of half-maximal effect; tags give direction and shape of the fitted curve.
Note: nearly all actives have a fitted effect of over 60% in size.

Each compound was assayed against 3-hydroxyacyl-CoA dehydrogenase type-2 (Homo sapiens) (UniProt Q99714) (assay: qHTS Assay for Inhibitors of HADH2 (Hydroxyacyl-Coenzyme A Dehydrogenase, Type II)). Settings: recombinant HADH2, NADH fluorescence, beta-hydroxybutyryl-CoA; activity change, negative = inhibition: at 57.1 µM (top of the series).
UniProt Q99714, sequence (Q99714 whole entry, looked up): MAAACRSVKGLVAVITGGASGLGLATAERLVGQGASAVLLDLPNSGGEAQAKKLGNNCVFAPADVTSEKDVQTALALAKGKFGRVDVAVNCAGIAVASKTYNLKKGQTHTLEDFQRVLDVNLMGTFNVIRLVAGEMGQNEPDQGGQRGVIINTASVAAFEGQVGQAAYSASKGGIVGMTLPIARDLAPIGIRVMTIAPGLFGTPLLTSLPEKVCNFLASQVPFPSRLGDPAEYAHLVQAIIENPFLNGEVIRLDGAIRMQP
UniProt Q99714, sequence (Q99714 whole entry, looked up): as above
Outline: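 His-tagged recombinant enzyme from E. coli, 20 nM, preincubated 15 min RT with compound; reaction started with 1 mM NAD+ and 90 uM beta-hydroxybutyryl-CoA in 100 mM Tris-HCl pH 9.0. NADH fluorescence (ex 360/em 450) read over 4 min; last-minus-first difference.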
In the case of `CCOC(=O)Cc1csc(NC(=O)CSc2nnc(C3CC3)n2C)n1`, the Potency is reported as inconclusive: 0.158 µM [inhibitor, full curve]. For `CCOC(=O)N1CCN(CC(=O)n2c(C)c(C)c3ccccc32)CC1`, the Potency was inconclusive: 7.94 µM [inhibitor, single point]. `CCOC(=O)CSc1nnc(CNc2nc(-c3ccccc3)cs2)n1C` was tested, and the Potency was inconclusive: 5.01 µM [inhibitor, full curve]. In the case of `COc1ccc(OC)c2[nH]c(=O)c(CCNC(=O)c3cc4ccccc4o3)cc12`, the Potency is reported as inconclusive: 39.8 µM [inhibitor, single point]. With `COCCN1Cc2cccc(C(=O)Nc3ccc(S(=O)(=O)N4CCCCCC4)cc3)c2C1=O` the “activity change, negative = inhibition” value was inactive: 20.4%. `O=C(O)CSc1c2c(nc3cc(C(=O)N4CCOCC4)ccc13)CCCC2` was tested, and the Potency was inconclusive: 15.8 µM [inhibitor, partial curve]. In the case of `O=c1c2c3c(sc2nc2n1CCCCC2)CCCC3`, the Potency is reported as active: 10 µM. `CC(=O)OC1c2c(ccc3ccc(=O)oc23)OC(C)(C)C1OC(=O)CC(C)C` (stereo not drawn) was tested, and the Potency was inconclusive: 39.8 µM [inhibitor, single point]. In the case of `Cc1ccc(-n2nc(C(=O)NCc3ccco3)c3c4ccccc4n(C)c3c2=O)cc1`, the Potency is reported as inconclusive: 31.6 µM [inhibitor, single point]. In the case of `CC1S/C(=C(\C#N)C(N)=O)N(c2ccc(F)cc2)C1=O` (stereo not drawn), the Potency is reported as inconclusive: 15.8 µM [inhibitor, partial curve]. `c1ccc(C2(c3ccccc3)OCC(Cn3cncn3)O2)cc1` (stereo not drawn) was tested, and the Potency was inconclusive: 31.6 µM [inhibitor, single point]. For `O=C1c2cccc3cccc(c23)C(=O)N1c1nncs1`, the Potency was inconclusive: 31.6 µM [inhibitor, single point]. In the case of `CC(=O)N(c1ccc2oc(=O)sc2c1)S(=O)(=O)c1ccccc1`, the Potency is reported as active: 3.16 µM. In the case of `CC1=CC(C)(C)Nc2ccccc21`, the Potency is reported as inconclusive: 31.6 µM [inhibitor, partial curve, poor fit]. In the case of `C=CCn1c(=O)/c(=C/c2ccc(C)o2)s/c1=C(/C#N)C(=O)c1ccccc1`, the Potency is reported as inconclusive: 3.98 µM [inhibitor, partial curve]. With `N#Cc1c(C(F)(F)F)cc(C2CC2)[nH]c1=O` the Potency was active: 10 µM. For `Cc1sc2ncnc(SCC#N)c2c1C`, the Potency was inconclusive: 15.8 µM [inhibitor, partial curve]. `COC(=O)CN(c1ccc(C)cc1)S(=O)(=O)c1ccc2c(c1)n(C)c(=O)c(=O)n2C` was tested, and the Potency was inconclusive: 39.8 µM [inhibitor, single point]. In the case of `N#CC1=C2SCN(Cc3ccco3)CN2C(=O)CC1c1cccc2ccccc12` (stereo not drawn), the Potency is reported as active: 3.16 µM. For `Clc1ccc2nc(NC3=NCN(CCN4CCOCC4)CN3)nc(-c3ccccc3)c2c1`, the “activity change, negative = inhibition” value was inactive: 5.91%. In the case of `CCc1ccc2[nH]c(=O)c(C(c3nnnn3CCOC)N3CCN(c4ccc(F)cc4)CC3)cc2c1` (stereo not drawn), the “activity change, negative = inhibition” value is reported as inactive: 7.5%. With `CCOC(=O)Nc1nnc(-c2ccc(OC)c(OC)c2)s1` the Potency was inconclusive: 1 µM [inhibitor, single point]. `COc1ccc2[nH]c3c(NCCN(C(C)C)C(C)C)ncnc3c2c1` was tested, and the Potency was active: 31.6 µM. `N#Cc1c(N)sc(=S)c2c1CCN(Cc1ccccc1)C2` was tested, and the Potency was active: 15.8 µM. `CS(=O)(=O)c1sc2nc(-c3cccs3)cc(-c3ccccc3)c2c1N` was tested, and the Potency was active: 25.1 µM. With `COc1ccc(-c2nc3cnc(N4CCNCC4)nc3n(-c3ccccc3)c2=O)cc1` the “activity change, negative = inhibition” value was inactive: 6.59%. With `C[C@@H](NC(=O)/C(C#N)=C/c1ccc(O)c(O)c1)c1ccccc1` the Potency was active: 25.1 µM. In the case of `O=C(O)c1ccncc1.O=C(O)c1ccncc1.[NH2-].[NH2-].[Pt]`, the activity change, negative = inhibition is reported as inactive: -0.781% [at 11.4 µM]. In the case of `CC(=O)c1cc2c(O)c(O)ccc2o1`, the Potency is reported as inconclusive: 25.1 µM [inhibitor, partial curve]. `CCCCn1c(=NC(=O)c2cccnc2)c(C(=O)OCC)cc2c(=O)n3ccccc3nc21` was tested, and the Potency was active: 15.8 µM. With `Cc1nc(SCC(=O)NCc2ccco2)c2oc3ccccc3c2n1` the Potency was inconclusive: 6.31 µM [inhibitor, single point]. In the case of `COc1ccc(-c2cc(C(=O)N3CCOCC3)c3cc(C)ccc3n2)cc1`, the Potency is reported as active: 31.6 µM. For `Cc1ccccc1Cn1ccc(NC(=O)c2cc3nc(-c4ccco4)cc(C(F)(F)F)n3n2)n1`, the Potency was inconclusive: 10 µM [inhibitor, partial curve]. With `O=C(CSc1n[nH]c(-c2ccc(S(=O)(=O)NC3CCCCC3)cc2)n1)N1CCCC1` the Potency was active: 25.1 µM. With `Clc1ccc(-c2nn3c(Cn4cnc5ccccc54)nnc3s2)c(Cl)c1` the Potency was active: 0.316 µM. In the case of `O=C(OCCCN1C(=O)c2ccccc2C1=O)c1ccco1`, the “activity change, negative = inhibition” value is reported as inactive: 4.69%. With `CCN1CCN(c2ncc(C(=O)Nc3cc(Cl)c(OC)cc3OC)c3ccccc23)CC1` the “activity change, negative = inhibition” value was inactive: 4.16%. `Cc1occc1C(=O)NC(C)C1CCCO1` (stereo not drawn) was tested, and the Potency was inconclusive: 25.1 µM [inhibitor, single point]. With `CCOc1cc(C2c3c(n[nH]c3C)C(=O)N2c2ccc(Br)cc2)ccc1O` (stereo not drawn) the Potency was inconclusive: 10 µM [inhibitor, partial curve]. For `Cc1nc2nc(-c3ccco3)nn2c(C)c1Cl`, the Potency was inconclusive: 25.1 µM [inhibitor, single point]. With `Cn1nnnc1SCC(=O)Nc1ccc(Oc2ccccc2)cc1` the Potency was inconclusive: 7.94 µM [inhibitor, single point]. For `O=C(Nc1ccc2c(c1)OCO2)OCc1ccccc1`, the “activity change, negative = inhibition” value was inactive: -1.47%. `COc1cc(OC)c(C2CC(=O)N3CN(c4ccccc4)CSC3=C2C#N)cc1OC` (stereo not drawn) was tested, and the Potency was inconclusive: 3.16 µM [inhibitor, full curve]. In the case of `O=C(O)CCN1C(=O)c2ccc(NC(=O)c3cccs3)cc2C1=O`, the Potency is reported as active: 25.1 µM. In the case of `Cc1csc(NC(=O)c2sc3nc(-c4cccs4)ccc3c2N)n1`, the Potency is reported as inconclusive: 3.98 µM [inhibitor, full curve]. With `COc1cccc(C2C3CN(C)CC=C3C(C#N)=C(N)C2(C#N)C#N)c1OC` (stereo not drawn) the Potency was inconclusive: 39.8 µM [inhibitor, single point]. In the case of `Cc1cc(C)n2c(=S)[nH]nc2n1`, the Potency is reported as active: 5.01 µM. `CCOC(=O)CC(=O)CSc1nc(C)nc2c1oc1ccccc12` was tested, and the Potency was inconclusive: 20 µM [inhibitor, partial curve].
